According to PubChem BioAssay AID1030 (National Center for Advancing Translational Sciences (NCATS), 2008):
“And” between values parts separate entries of the source, which are not always exact repeats. Equal entries are not always repeated. Among all 220,000 compounds or so, about 16,000 (7.3%) were called active. Inconclusive means that the source gave no clear call. Such entries were picked first, then a sample of the others. Calls follow the shape of the dose curve; as a rule, active = well fitted inhibition curve with a large enough effect (not every such curve was filed as active); inconclusive = small, poorly fitted or top-dose-only effect, or another doubt; inactive = no such curve, though single readings can be large or run the other way. Potencies of inconclusive entries are doubtful fits and often do not repeat.

What follows are molecules tested against Aldehyde dehydrogenase 1A1 (Homo sapiens) (UniProt P00352) (assay: qHTS Assay for Inhibitors of Aldehyde Dehydrogenase 1 (ALDH1A1)). Settings: Purified ALDH1A1, NADH fluorescence, propionaldehyde substrate; series mostly up to 75.3 µM.
Potency is read from the fitted curve at half-maximal effect; tags tell the direction and shape of the fitted curve.

Sequence of UniProt P00352 (P00352 whole entry, looked up): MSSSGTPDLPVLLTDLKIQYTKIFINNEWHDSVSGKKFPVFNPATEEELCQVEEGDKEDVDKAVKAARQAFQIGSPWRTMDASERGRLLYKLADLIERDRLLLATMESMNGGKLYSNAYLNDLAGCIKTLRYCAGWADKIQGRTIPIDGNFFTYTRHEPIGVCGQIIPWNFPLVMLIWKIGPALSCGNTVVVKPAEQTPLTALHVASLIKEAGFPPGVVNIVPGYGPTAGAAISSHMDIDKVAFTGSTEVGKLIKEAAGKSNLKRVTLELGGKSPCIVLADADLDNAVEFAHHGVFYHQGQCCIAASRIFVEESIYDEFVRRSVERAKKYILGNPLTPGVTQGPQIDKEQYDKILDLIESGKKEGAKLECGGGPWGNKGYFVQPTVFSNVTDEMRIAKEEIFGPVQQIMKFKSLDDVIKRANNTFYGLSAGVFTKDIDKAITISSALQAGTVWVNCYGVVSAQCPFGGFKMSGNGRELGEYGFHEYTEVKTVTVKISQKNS

Structure (SMILES)	Potency
COc1cc(O)c(CCO)c2c1C(=O)C[C@@H](C)O2	inconclusive: 39.8 µM [inhibitor, single point]
COc1ccc(Cl)cc1NC(=S)NCc1ccc(S(N)(=O)=O)cc1	inactive
CO/N=C/c1ccc(N2CCCC2)c([N+](=O)[O-])c1	inconclusive: 35.5 µM [inhibitor, single point]
COc1ccc(Oc2ncc3nc(-c4cccs4)c(=O)n(C)c3n2)cc1	inconclusive: 39.8 µM [inhibitor, single point]
Cc1ccc(CC(=O)NCC(c2ccco2)N(C)C)cc1C (stereo not given)	inactive
Cc1ccc(CNC(=O)c2ccccc2N)cc1	inconclusive: 28.2 µM [inhibitor, partial curve]
Cc1onc(-c2c(F)cccc2Cl)c1C(=O)NCCc1ccc(S(N)(=O)=O)cc1	inactive
O=C(NCCNc1ccc([N+](=O)[O-])cc1C(F)(F)F)c1cccc(F)c1	inconclusive: 25.1 µM [inhibitor, single point]
CCN1CCN(C(=O)CN(C)S(=O)(=O)c2cc(C)ccc2OC)CC1	inconclusive: 8.91 µM [inhibitor, single point]
O=C(CSCc1ccc(Cl)cc1)N/N=C/c1ccco1	inconclusive: 31.6 µM [inhibitor, single point]
O=S(=O)(NC(=NCCc1ccc(Cl)cc1)c1ccccc1Cl)c1cccs1	inactive
COc1cc([N+](=O)[O-])ccc1NC(=S)N1CCN(c2ccccn2)CC1	inconclusive: 39.8 µM [inhibitor, single point]
Cc1ccccc1-c1ccc(=O)n(CC(=O)Nc2ccc(C(=O)N3CCCC3)cc2)n1	inconclusive: 39.8 µM [inhibitor, single point]
CC1(C)Cc2c(C#N)c(N)sc(=S)c2CS1	active: 7.08 µM
CC[C@@H]1Cc2cc(O)ccc2C2=C1c1ccc(O)cc1C[C@H]2CC	inconclusive: 28.2 µM [inhibitor, partial curve]
CCN(CC)S(=O)(=O)c1ccc(N2CCN(S(=O)(=O)c3ccc4c(c3)OCCO4)CC2)nc1	inactive
Cc1ccc(OCC(=O)Nn2c(C)nc3ccccc3c2=O)c(C(C)C)c1	inconclusive: 39.8 µM [inhibitor, single point]
C=CCn1c(C)cc(C(=O)CN2NS(=O)(=O)c3ccccc3C2=O)c1C	inconclusive: 28.2 µM [inhibitor, partial curve]
O=C1CN(C(=O)CSc2nnc(-c3ccccc3)n2Cc2ccc3c(c2)OCO3)c2ccccc2N1	inactive
Cc1cc(C)c2cc(CN(Cc3nnnn3Cc3ccc(F)cc3)C3CCCC3)c(=O)[nH]c2c1	inconclusive: 8.91 µM [inhibitor, partial curve]
O=C1NC(=S)/C(=C\c2ccc(-c3ccccc3Cl)o2)S1	inconclusive: 31.6 µM [inhibitor, single point]
COc1ccccc1C(=O)N1c2ccccc2Sc2ccccc21	inactive
COCCn1c(SCC(=O)N2CCCCC2)nc2ccccc2c1=O	active: 10 µM
COc1ccccc1NC(=O)CN1CCN(Cc2ccccc2)CC1	active: 10 µM

Structure (SMILES)	Potency
COc1cccc(C(=O)N2CCN(C(=O)Cc3ccccc3)CC2)c1	inactive
CCOC(=O)c1ccc(NC(=O)CCc2nc(-c3ccccc3)no2)cc1	inconclusive: 17.8 µM [inhibitor, partial curve]
COc1ccc(CCC(=O)Nc2cc([N+](=O)[O-])ccc2OC)cc1	inconclusive: 28.2 µM [inhibitor, partial curve, poor fit]
CCOC(=O)Nc1sc2nc(C)cc(C)c2c1-n1cccc1	inconclusive: 31.6 µM [inhibitor, single point]
CCOC(=O)CCn1c(=O)c2c(nc(Br)n2Cc2ccccc2)n(C)c1=O	inconclusive: 12.6 µM [inhibitor, partial curve]
CC(C)(C)C(=O)NCC12C=CC(O1)C1C(=O)N(c3ccccc3)C(=O)C12 (stereo not given)	active: 1.41 µM
Cc1cc(C)nc(SCC(=O)NN)n1	active: 10 µM
Fc1cccc(F)c1-n1c(CN2CCCCC2)csc1=S	inconclusive: 22.4 µM [inhibitor, partial curve]
Cc1[nH]c2ccccc2c1C(=O)CN1C(=O)NC(C)(c2ccc(Cl)cc2Cl)C1=O (stereo not given)	inconclusive: 39.8 µM [inhibitor, single point]
Cc1ccc(NC(=O)CSc2nnc(-c3cnccn3)n2Cc2ccco2)cc1C	inconclusive: 3.16 µM [inhibitor, single point]
CCN(CC)S(=O)(=O)c1ccc(OC(C)C)c(NC(=O)c2c3c(nc4ccccc24)CCN(Cc2ccccc2)C3)c1	inconclusive: 15.8 µM [inhibitor, partial curve]
COc1ccc(NS(=O)(=O)c2cc(NC(=O)C3CCCCC3)ccc2N2CCOCC2)cc1	active: 2.51 µM
Cc1nc2ncccn2c1-c1csc(NCc2ccco2)n1	inconclusive: 22.4 µM [inhibitor, partial curve]
COC(=O)c1scc(C)c1NC(=O)Nc1ccccc1	inactive
c1ccc(-c2nn3c(Cn4nnc5ccccc54)nnc3s2)cc1	active: 3.16 µM
O[C@@H]([C@H](O)[C@@H](O)CBr)[C@@H](O)CBr	inconclusive: 39.8 µM [inhibitor, single point]
CCSC1=C(C#N)C2(CCCCC2)C2=C(CC(C)(C)CC2=O)N1	inconclusive: 37.7 µM [inhibitor, single point]
COc1ccc(C(C)(C)C)cc1NC(=O)CNc1cccc2ccccc12	inconclusive: 31.6 µM [inhibitor, single point]
COc1ccc(-c2cc3ccc(OCc4nn[nH]n4)cc3oc2=O)cc1	inconclusive: 28.2 µM [inhibitor, partial curve]
COc1ccc(-c2[nH]ncc2CN2CCCC2c2nonc2C)c(F)c1 (stereo not given)	inconclusive: 22.4 µM [inhibitor, single point]
CCC(=O)N1CCc2cc(S(=O)(=O)N3CCN(C(=O)c4ccco4)CC3)ccc21	inconclusive: 39.8 µM [inhibitor, single point]
Cn1c(=O)c2c(nc(NCc3ccc4c(c3)OCO4)n2Cc2ccccc2Cl)n(C)c1=O	inconclusive: 2.51 µM [inhibitor, full curve]
C=CCn1c(SCC(=O)c2cccs2)nnc1-c1cccc(OC)c1	inconclusive: 28.2 µM [inhibitor, single point]
S=C(N/N=C/c1ccc2ncccc2c1)Nc1cccnc1	inactive

Structure (SMILES)	Potency
O=[N+]([O-])c1cccc(/C=N\Nc2ccc3ccccc3n2)c1O	active: 1.58 µM
O=C(NCCc1ccccn1)c1cccc(S(=O)(=O)N2CCc3ccccc32)c1	active: 20 µM
CCCNc1nc(C)c(C(C)=O)cc1C#N	inactive
COc1ccc(-c2cc(=O)c3ccccc3[nH]2)cc1	inconclusive: 39.8 µM [inhibitor, single point] and inconclusive: 70.8 µM [inhibitor, single point]
N#CC(c1ccccc1)c1ccc2c(C(F)(F)F)cc(C(F)(F)F)nc2n1 (stereo not given)	active: 22.4 µM
COc1ccc(CCNS(=O)(=O)c2ccc(C3CNC(=O)C3)cc2)cc1OC (stereo not given)	inactive
COC(=O)[C@@]1(Cc2ccc(OC)cc2)[C@H]2c3cc(C(=O)N4CCCC4)n(CCn4cc([N+](=O)[O-])nc4C)c3C[C@H]2CN1C(=O)c1ccccc1	inactive
CCOc1ccc2c(c1)/C(=N/N1C(=O)c3ccccc3C1=O)C(=O)N2	inconclusive: 5.01 µM [inhibitor, single point]
COc1cc(C(=O)Nc2ccc(-c3nc4cc(C)ccc4o3)c(O)c2)cc(OC)c1OC	inconclusive: 31.6 µM [inhibitor, partial curve]
O=C(c1ccncc1)N1CCN(C(=O)c2cccc3ccccc23)CC1	inconclusive: 25.1 µM [inhibitor, single point]
CCOC(=O)C1C(=O)C=C(Nc2ccccc2F)CC1c1ccccc1 (stereo not given)	inactive
COc1ccc2cc3[n+](cc2c1OC)CCc1cc2c(cc1-3)OCO2	inactive
Cc1ccc(OCc2nc(-c3ccccn3)no2)cc1	inactive
CC(C)Oc1ccc(C(=O)Nc2ccc(N3CCCC3)cc2)cc1	inconclusive: 12.6 µM [inhibitor, partial curve, poor fit]
CC(C)c1nnc(SCC(=O)N2CCc3ccccc32)n1N	inconclusive: 39.8 µM [inhibitor, single point]
Cc1cc(C)n2cc(CSc3ncccc3C(=O)O)nc2n1	inconclusive: 25.1 µM [inhibitor, partial curve]
CC(C)C(OC(=O)c1cccs1)C(=O)NCc1ccc2c(c1)OCO2 (stereo not given)	inactive
CCCCn1c(=O)[nH]c(=O)c2c(C(=O)OCC)cc(-c3cccs3)nc21	inconclusive: 22.4 µM [inhibitor, partial curve]
Clc1cccc(-c2cc3nc4c(c(N5CCNCC5)n3n2)CCCC4)c1	inconclusive: 8.91 µM [inhibitor, single point]
CCCCOc1ccc(-c2cc(C(F)(F)F)c(C#N)c(SCC(=O)O)n2)cc1	inconclusive: 39.8 µM [inhibitor, single point]
COc1ccc(S(=O)(=O)NCCc2nnc3ccc(SCC(=O)Nc4nc(C)cs4)nn23)cc1	inconclusive: 39.8 µM [inhibitor, single point]
O=C(CP(=O)(c1ccccc1)c1ccccc1)N1CCOCC1	inconclusive: 11.2 µM [inhibitor, partial curve]
